Measurements taken from a collection of fitness landscapes (doi:10.1016/j.celrep.2020.107928).
The full ranking holds about 81,000 sequences; the median of “one-hybrid fitness for binding parS DNA” is about -0.17, and the highest 2% start at about 0.51. Some of the results follow.

B1: Caulobacter ParB omega fusion; a variant is named by its letters at X, in order, B8GW30 (parent)
chain: MESVVVGEPGMSEGRRGLGRGLSALLGEVDAAPAQAPGEQLGGSREAPIEILQRNPDQPRRTFREEDLEDLSNSIREKGVLQPILVRPSPDTAGEYQIVAGERAWRAAQRAGLKTVPIMVRELDDLAVLEIGIIENVQRADLNVLEEALSYKVLMEKFERTQENIAQTIGKSXSHVANXMRLLXLPDEVQSYLVSGELTAXHARAIAAAADPVALAKQIIEGGLSVRETEALARKAPNLSAGKSKGGRPPRVKDTDTQALESDLSSVLGLDVSIDHRGSTGTLTITYATLEQLDDLCNRLTRGI

Variants of: B1
Assay: one-hybrid fitness for binding parS DNA (scaled: cognate 1, non-cognate 0); higher = stronger binding
Conditions: with parS DNA site
Procedure, shortened: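 In E. coli USO, a HIS3 reporter with its site placed 19 bp from the promoter was used to select Caulobacter ParB variants randomised at four specificity codons. Growth lasted 48 hours at 37°C on histidine-free M9 containing 0.1 mM IPTG and 5 mM 3-AT. Fitness was taken as the log change in variant-to-wild-type read ratio from Illumina sequencing of pre- and post-selection plasmids, rescaled between the non-cognate and cognate sites.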

Variant	one-hybrid fitness for binding parS DNA
LAFH	≤ 0.2
KRLF	≤ 0.2
RATK	≤ 0.2
EVRP	≤ 0.2
PLTT	≤ 0.2
FGRM	≤ 0.2
NSPG	≤ 0.2
NLVK	≤ 0.2
VAGF	≤ 0.2
KHTL	≤ 0.2
DREY	≤ 0.2
SDGR	≤ 0.2
GDGY	≤ 0.2
NTEK	≤ 0.2
AGPG	≤ 0.2
HLHR	≤ 0.2
AQDT	≤ 0.2
LTAM	≤ 0.2
MIYG	≤ 0.2
TRRW	≤ 0.2
RLVW	0.258
HRNS	0.362
VAWE	≤ 0.2
VLNM	≤ 0.2

Variant	one-hybrid fitness for binding parS DNA
QKAF	≤ 0.2
HEQS	≤ 0.2
VIAM	≤ 0.2
PPHE	≤ 0.2
NAAG	≤ 0.2
LFVP	≤ 0.2
EESN	≤ 0.2
HEPT	≤ 0.2
AACT	≤ 0.2
QALA	≤ 0.2
YTKK	≤ 0.2
LIWD	≤ 0.2
LTQD	≤ 0.2
PTMV	≤ 0.2
ATSW	≤ 0.2
DHNC	≤ 0.2
AYGC	≤ 0.2
TRVV	≤ 0.2
DVYL	≤ 0.2
NSCG	≤ 0.2
VYTC	≤ 0.2
LTTK	≤ 0.2
ERTA	≤ 0.2
SYAY	≤ 0.2

Variant	one-hybrid fitness for binding parS DNA
CLAC	≤ 0.2
CMTC	≤ 0.2
RVGG	1.01
DRPS	≤ 0.2
NKED	≤ 0.2
TVRL	≤ 0.2
FCRG	≤ 0.2
MSRS	≤ 0.2
CEVW	≤ 0.2
IWNS	≤ 0.2
FVDR	≤ 0.2
LLHC	≤ 0.2
PGVC	≤ 0.2
SAPD	≤ 0.2
DALE	≤ 0.2
LPQC	≤ 0.2
EQDT	≤ 0.2
RTPD	≤ 0.2
AKVC	≤ 0.2
QCDC	≤ 0.2
LQSC	≤ 0.2
LQEC	≤ 0.2
PPMA	≤ 0.2
GFQT	≤ 0.2

Variant	one-hybrid fitness for binding parS DNA
KEHL	≤ 0.2
RKRN	0.347
ACKA	≤ 0.2
PTSM	≤ 0.2
QEAG	≤ 0.2
VINV	≤ 0.2
NNIL	≤ 0.2
SNCI	≤ 0.2
QDNI	≤ 0.2
RHLN	0.376
SWRL	≤ 0.2
HHKY	≤ 0.2
QDDG	≤ 0.2
HRST	≤ 0.2
RSWG	0.93
PKHY	≤ 0.2
SRRD	≤ 0.2
CVTI	≤ 0.2
PAAI	≤ 0.2
LEAT	≤ 0.2
AANC	≤ 0.2
PHSE	≤ 0.2
PAQS	≤ 0.2
YYNS	≤ 0.2

Variant	one-hybrid fitness for binding parS DNA
VCGT	≤ 0.2
SKTF	≤ 0.2
SDLW	≤ 0.2
GENG	≤ 0.2
EVAD	≤ 0.2
KTNH	≤ 0.2
ARTV	≤ 0.2
LRAI	≤ 0.2
QNHA	≤ 0.2
RAPE	≤ 0.2
ICLK	≤ 0.2
RKAI	≤ 0.2
GKGF	≤ 0.2
PCAM	≤ 0.2
MDRY	≤ 0.2
CQYR	≤ 0.2
GNKL	≤ 0.2
RNVS	0.674
DVNL	≤ 0.2
GAKG	≤ 0.2
PHQQ	≤ 0.2
QKIE	≤ 0.2
RGVY	≤ 0.2
WVWT	≤ 0.2

Variant	one-hybrid fitness for binding parS DNA
AKRH	≤ 0.2
IELR	≤ 0.2
QTFL	≤ 0.2
LCTS	≤ 0.2
DLAR	≤ 0.2
SSST	≤ 0.2
ELLT	≤ 0.2
LTYN	≤ 0.2
SQCG	≤ 0.2
APLI	≤ 0.2
RTTT	0.917
YQDL	≤ 0.2
TCSF	≤ 0.2
SFHI	≤ 0.2
CPYI	≤ 0.2
FGPS	≤ 0.2
WYYC	≤ 0.2
ITTT	≤ 0.2
NMHR	≤ 0.2
MGRS	≤ 0.2
EASS	≤ 0.2
MCMY	≤ 0.2
ASEF	≤ 0.2
DLPK	≤ 0.2

Variant	one-hybrid fitness for binding parS DNA
ELNS	≤ 0.2
KAPE	≤ 0.2
KITC	≤ 0.2
VPGF	≤ 0.2
KHTC	≤ 0.2
MRPA	≤ 0.2
KSPI	≤ 0.2
RTIK	≤ 0.2
KALP	≤ 0.2
PNHM	≤ 0.2
SHSA	≤ 0.2
QTMQ	≤ 0.2
DQRF	≤ 0.2
MLPL	≤ 0.2
QQPF	≤ 0.2
PPTD	≤ 0.2
TQWV	≤ 0.2
QKRM	≤ 0.2
TFGD	≤ 0.2
SEVF	≤ 0.2
KRCY	≤ 0.2
PHLS	≤ 0.2
KTST	≤ 0.2
TELC	≤ 0.2

Variant	one-hybrid fitness for binding parS DNA
TRCT	≤ 0.2
PVLA	≤ 0.2
DNNF	≤ 0.2
NADR	≤ 0.2
QMNC	≤ 0.2
QHHQ	≤ 0.2
TIAT	≤ 0.2
IIAT	≤ 0.2
PISV	≤ 0.2
QNSS	≤ 0.2
PKYW	≤ 0.2
RKDQ	≤ 0.2
CWKY	≤ 0.2
LNYR	≤ 0.2
RSNP	≤ 0.2
YLKH	0.358
KRWD	≤ 0.2
WGAR	≤ 0.2
CPTC	≤ 0.2
KMRF	≤ 0.2
PSHF	≤ 0.2
PMNR	≤ 0.2
NFPI	≤ 0.2
LGDL	≤ 0.2

Variant	one-hybrid fitness for binding parS DNA
SKYY	≤ 0.2
CEQI	≤ 0.2
SLNY	≤ 0.2
QNCC	≤ 0.2
QSFI	≤ 0.2
MKHC	≤ 0.2
AYTE	≤ 0.2
PQNL	≤ 0.2
TCVS	≤ 0.2
LKGL	≤ 0.2
QTLW	≤ 0.2
SSMR	≤ 0.2
KITY	≤ 0.2
SVHD	≤ 0.2
MYHY	≤ 0.2
MGLY	≤ 0.2
IGCR	≤ 0.2
PWGK	≤ 0.2
QAFQ	≤ 0.2
RQRQ	≤ 0.2
WVNS	≤ 0.2
WTSS	≤ 0.2
TRQF	≤ 0.2
ETNE	≤ 0.2

Variant	one-hybrid fitness for binding parS DNA
YRML	≤ 0.2
TSDG	≤ 0.2
KLSC	≤ 0.2
NDKC	≤ 0.2
HYPG	≤ 0.2
NLRS	≤ 0.2
NNLM	≤ 0.2
DYLG	≤ 0.2
DYCG	≤ 0.2
QNLL	≤ 0.2
HDPC	≤ 0.2
NTVW	≤ 0.2
MLIR	≤ 0.2
NATT	≤ 0.2
YGVC	≤ 0.2
MRIW	≤ 0.2
FSRR	≤ 0.2
AVPK	≤ 0.2
RGGW	≤ 0.2
TTKS	≤ 0.2
MNLW	≤ 0.2
QYMA	≤ 0.2
KGMW	≤ 0.2
QSDL	≤ 0.2

Variant	one-hybrid fitness for binding parS DNA
APRV	≤ 0.2
IFTT	≤ 0.2
LDMI	≤ 0.2
HFGI	≤ 0.2
SMRA	≤ 0.2
WPKS	≤ 0.2
KKRG	≤ 0.2
PPPT	≤ 0.2
MLNR	≤ 0.2
RNNK	≤ 0.2
RDSQ	≤ 0.2
IQTG	≤ 0.2
YRLR	≤ 0.2
WWQS	≤ 0.2
LITM	≤ 0.2
EAHN	≤ 0.2
VDRI	≤ 0.2
CHDG	≤ 0.2
FCAG	≤ 0.2
SESR	≤ 0.2
FIWG	≤ 0.2
MDHY	≤ 0.2
LVIM	≤ 0.2
LYMH	≤ 0.2

Variant	one-hybrid fitness for binding parS DNA
QSTV	≤ 0.2
MIKI	≤ 0.2
LERV	≤ 0.2
VRPC	≤ 0.2
LRHS	≤ 0.2
NTVH	≤ 0.2
RVPE	≤ 0.2
GDHG	≤ 0.2
IWRM	≤ 0.2
ICFR	≤ 0.2
RYPE	≤ 0.2
LKII	≤ 0.2
SIHG	≤ 0.2
RFVQ	≤ 0.2
AANW	≤ 0.2
CSIN	≤ 0.2
TGYL	≤ 0.2
VITL	≤ 0.2
DVER	≤ 0.2
QGWN	≤ 0.2
MECS	≤ 0.2
QCAM	≤ 0.2
KAYR	≤ 0.2
QKVW	≤ 0.2

Variant	one-hybrid fitness for binding parS DNA
YWKC	≤ 0.2
CHDR	≤ 0.2
QRHM	≤ 0.2
HNNC	≤ 0.2
RFWV	≤ 0.2
GEKT	≤ 0.2
TNDW	≤ 0.2
WTPT	≤ 0.2
SAMS	≤ 0.2
YECG	≤ 0.2
TRRP	≤ 0.2
QIES	≤ 0.2
AYKF	≤ 0.2
CPQC	≤ 0.2
DCQM	≤ 0.2
RFWE	0.211
RSYN	0.406
SEWI	≤ 0.2
